Experimental data as given in PMC4336329 (PLoS ONE, 2015).
About 14,000 (4.5%) of roughly 310,000 compounds showed an effect of 50% or more. The effect is printed as a negative number. The list shows a part of the results.

What follows are compounds tested against human ether-à-go-go-related gene (hERG) potassium channel (human, UniProt Q12809) (assay: primary screen, population patch clamp on CHO cells stably expressing hERG).
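Also: peak tail current of the secondary pulse compared with the same well before compound.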

Chain of human ether-à-go-go-related gene (hERG) potassium channel (Q12809 whole entry, looked up): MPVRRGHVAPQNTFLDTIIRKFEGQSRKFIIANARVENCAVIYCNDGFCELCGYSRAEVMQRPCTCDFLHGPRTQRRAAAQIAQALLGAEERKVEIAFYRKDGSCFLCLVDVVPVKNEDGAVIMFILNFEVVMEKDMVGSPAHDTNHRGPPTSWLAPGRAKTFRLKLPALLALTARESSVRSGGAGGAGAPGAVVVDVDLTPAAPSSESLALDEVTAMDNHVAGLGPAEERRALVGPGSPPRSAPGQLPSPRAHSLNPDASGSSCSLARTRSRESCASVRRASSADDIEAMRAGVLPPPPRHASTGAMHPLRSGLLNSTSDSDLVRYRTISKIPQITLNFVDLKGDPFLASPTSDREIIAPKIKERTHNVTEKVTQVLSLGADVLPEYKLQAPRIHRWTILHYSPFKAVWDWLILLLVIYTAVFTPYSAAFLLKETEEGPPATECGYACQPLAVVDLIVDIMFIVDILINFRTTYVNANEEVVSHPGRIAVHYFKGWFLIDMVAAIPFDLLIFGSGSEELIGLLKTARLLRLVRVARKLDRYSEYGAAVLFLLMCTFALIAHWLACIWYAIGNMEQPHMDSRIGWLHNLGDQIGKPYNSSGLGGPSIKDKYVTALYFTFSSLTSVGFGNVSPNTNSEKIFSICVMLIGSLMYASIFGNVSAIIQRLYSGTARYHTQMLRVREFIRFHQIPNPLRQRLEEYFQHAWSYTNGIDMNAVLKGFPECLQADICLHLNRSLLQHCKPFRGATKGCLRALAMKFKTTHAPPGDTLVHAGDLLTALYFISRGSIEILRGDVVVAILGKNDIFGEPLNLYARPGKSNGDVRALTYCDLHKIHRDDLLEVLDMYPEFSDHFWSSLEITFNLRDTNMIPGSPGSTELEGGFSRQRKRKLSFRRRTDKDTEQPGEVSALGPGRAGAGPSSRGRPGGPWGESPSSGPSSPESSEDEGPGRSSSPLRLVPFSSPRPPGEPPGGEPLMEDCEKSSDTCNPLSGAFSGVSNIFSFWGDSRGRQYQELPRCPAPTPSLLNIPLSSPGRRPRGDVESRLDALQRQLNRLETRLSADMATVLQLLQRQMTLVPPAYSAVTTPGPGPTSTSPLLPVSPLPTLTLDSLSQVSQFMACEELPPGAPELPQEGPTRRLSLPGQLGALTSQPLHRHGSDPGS

SMILES | hERG current change (%, negative = inhibition) at 10uM [%]
O=C(COn1nnc2ccc(C(F)(F)F)cc21)Nc1nnc(-c2ccccc2)o1 | -3.51
Cc1ccccc1NS(=O)(=O)c1ccc(C(=O)N2CCCCCC2)cc1 | -11.5
O=C(COC(=O)/C=C/c1ccccc1[N+](=O)[O-])Nc1ccc(OCc2ccccc2)cc1 | 17.2
COc1ccccc1N1CCN(S(=O)(=O)CCNC(=O)C2CCCC2)CC1 | -11.9
CCCCCCN1C=CC=C/C1=C\C=C(C#N)C#N | -71.1
CCOCCCNC(=S)NCCNc1nc2c(C)cccc2cc1C#N | -23.3
COc1cc(C2=NC(CO)(CO)CO2)cc(OC)c1OC | 11.6
O=C(NCCCN1CCCC1=O)c1cccc(S(=O)(=O)Nc2ccccc2Cl)c1 | 21
Clc1cnc2nc(SC/C=C/c3ccccc3)[nH]c2c1 | 22.2
CC1CCC2(CC1)NC(=O)N(CC(=O)Nc1ccc(F)cc1)C2=O (centres unmarked) | -0.443
COC(=O)c1ccc(NC(=O)c2ccccc2-c2ccccc2C(=O)O)cc1 | 5.69
O=C1CN=C(Nc2ccccc2Cl)N1c1ccccc1 | 4.93
CC(=O)Nc1ccc(S(=O)(=O)Nc2cccn(Cc3ccc(C)cc3)c2=O)cc1 | -5.96
CS(=O)(=O)N(CC(=O)Nc1ccccc1Sc1ccccc1)c1ccc(F)cc1 | -0.802
COc1cc2oc(=O)c3c(c2cc1OCC(=O)c1c(C)n(C)c2ccccc12)CCCC3 | 10.6
COc1ccc(NC(=S)NC23CN4CN(CN(C4)C2)C3)cc1 | 11.7
Cc1oc(-c2cccc(F)c2)nc1CN1CCCN(C(=O)c2ccco2)CC1 | -74.7
O=C(Nc1ccccc1)Nc1ccccc1NS(=O)(=O)c1cccs1 | 14.9
Cc1ccc(-c2nc3sc4c(c3c(=O)n2N)CC(C)(C)OC4)cc1 | 23

SMILES | hERG current change (%, negative = inhibition) at 10uM [%]
COc1ccc(OC(C)C(=O)N2CC(C)OC(C)C2)cc1 (centres unmarked) | 3.1
Cc1cc(C)nc(SC/C=C/c2ccccc2)n1.Cl | 17.2
COc1ccc(C(=O)SC2=NCCS2)cc1 | 6.21
CCOCCCNC(=O)C1(O)c2cc(Br)ccc2NC(=O)N1c1cccc(OC)c1 (centres unmarked) | 14.2
C/C(=N\NC(=O)c1c(Cl)c(C)nn1C)c1ccc(NC(=O)COc2ccc(Cl)cc2C)cc1 | 6.86
COc1ccc2[nH]c(=O)c(CN(C(=O)c3ccccn3)C3CCCCC3)cc2c1 | 1.24
Cc1nc2ccc(NC(=S)NCCCO)cc2nc1C | 15.2
Cc1ccc(C(=O)NC(=S)Nc2ccc3[nH]c(=O)[nH]c3c2)cc1 | -17.4
CC(=O)O[C@@H]1/C=C/[C@](C)(O)C[C@@H](C)C/C=C/[C@H]2[C@H](O)C(C)=C(C)[C@H]3[C@H](Cc4ccccc4)NC(=O)[C@@]123 | -15.4
O=C(COc1ccc2ccccc2c1)Nc1ccc(S(=O)(=O)N2CCCCCC2)cc1 | 11.3
COc1ccc(Cn2nnnc2C(C(C)C)N2CCN(c3ccccc3OC)CC2)cc1 (centres unmarked) | -26.5
Cn1cc(C(=O)c2cccc(Cl)c2Cl)cc1C(=O)O | 10.2
CN(C)CCCn1c2c(c(SCC(=O)Nc3ccc4c(c3)OCO4)nc1=O)CCC2 | -10.7
Cc1ccc(OCc2n[nH]c(=S)n2C2CCCCC2)cc1 | 21
Cc1nn(Cc2ccc(C(=O)NN)o2)c(C)c1Cl | 10.1
CC(C)(C)OC(=O)N1CCC[C@H]1C(=O)NCC1CCC(C(=O)O)CC1 (some centres unmarked) | -6.17
Cc1cc(C)n2nc(C(=O)N/N=C/c3ccccc3Cl)nc2n1 | -13.8
Cc1cccc(N=C2NN=C(c3ccccc3F)CS2)c1C | 41.8
Cc1cc(NC(=O)c2ccc(Cl)cc2)n(CCC#N)n1 | 10.9

SMILES | hERG current change (%, negative = inhibition) at 10uM [%]
CCN(CC(=O)NCc1ccc(F)cc1)c1ccc(S(C)(=O)=O)cc1[N+](=O)[O-] | -28.8
C[C@]12C(=O)N(c3ccc(Cl)cc3)C(=O)N1[C@H]1c3ccccc3OC[C@@H]1[C@H]2c1ccccc1 | 16.6
CC1(C)Cc2ccccc2-c2nnc(-c3ccccc3)n21 | -10.8
CC(C(=O)Nc1ccc(O)cc1)c1cccc(C(=O)c2ccccc2)c1 (centres unmarked) | -4.06
COC(=O)CC1C(=O)NCCN1C(=O)Nc1cccc(Cl)c1 (centres unmarked) | 19.1
O=C(NCCCN1CCOCC1)c1ccc(Br)cc1 | -13.7
CC(OC(=O)/C=C/c1ccc2ccccc2n1)C(=O)Nc1ccc(S(N)(=O)=O)cc1 (centres unmarked) | 19.1
CN1CCN(c2cc([N+](=O)[O-])ccc2Cl)CC1 | -23.3
N#CCCN1CCN(S(=O)(=O)c2ccc(S(=O)(=O)NC3CCCC3)cc2)CC1 | -9.4
Cc1ccc2nc3c(cc(C(=O)NC4CCCC4)c(=N)n3CCCn3ccnc3)c(=O)n2c1 | -58.6
CCc1nonc1NC(=O)c1oc2cc(C)c(C)cc2c1C | 23.3
CC(C)Cn1c([N+](=O)[O-])nc2c1c(=O)[nH]c(=O)n2C | 9.84
O=C(OCC(=O)N1CCCC1=O)c1cccc(S(=O)(=O)N2CCOCC2)c1 | 9.22
COc1ccc(-c2cc(COc3ccccc3)on2)cc1 | 36.1
O=C(c1ccccc1[N+](=O)[O-])N1CCC(Cc2ccccc2)CC1 | -19
O=C(CN1C(=O)c2ccccc2S1(=O)=O)NCc1ccccc1Cl | -4.09
C=CCNC(=O)c1onc(CSc2cccc(Cl)c2)c1C(=O)O | 5.55
CC1(C)C2([N+](=O)[O-])CN(CCO)CC1([N+](=O)[O-])CN(CCO)C2 | 3.83
